Results reported in the supplement of paper PMC9446081.
The campaign covered roughly 39,000 compounds. About 220 (0.56%) showed activity. This is one part of the list.

These compounds were tested on Escherichia coli K-12 BW25113 (assay: relative growth (OD600 normalised to plate interquartile mean) (fraction); higher = less growth inhibition, active = 0.2 or less). Conditions: 50 µM; LB; incubation time: overnight (16-24 h).
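Further: static incubation at 37 °C against the wild-type strain, values averaged over two biological replicates.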

SMILES	relative growth
Cc1noc(C)c1NC(=O)Nc1ccc2c(c1)C(=O)N(C)[C@H]1CC[C@H](CC(=O)Nc3ccc4c(c3)CCCC4)O[C@@H]1CO2	inactive: 1.02
COc1cc(N2CCC(N3CCN(C)CC3)CC2)ccc1Nc1ncc(Cl)c(Nc2ccccc2S(=O)(=O)C(C)C)n1	inactive: 1.02
C[C@@H]1CCCCO[C@H](CN(C)C(=O)Nc2ccccc2)[C@@H](C)CN([C@H](C)CO)C(=O)c2cc(NS(=O)(=O)c3cccs3)ccc2O1	inactive: 0.963
CCCCOc1cc(C(=O)OCCN(CC)CC)ccc1N.Cl	inactive: 0.955
C[C@@H]1CN([C@@H](C)CO)C(=O)Cc2cc(NS(=O)(=O)c3cn(C)cn3)ccc2O[C@@H]1CN(C)CC1CC1	inactive: 1
CCCCCCCc1c(C)c(O)cc2c1[nH]c1ccccc12	inactive: 1.01
COc1ccc(S(=O)(=O)Nc2ccc3c(c2)CC(=O)N([C@@H](C)CO)C[C@H](C)[C@@H](CN(C)C(=O)NC(C)C)O3)cc1	inactive: 0.988
C[C@@H]1CN([C@H](C)CO)C(=O)Cc2cc(NS(=O)(=O)c3ccc(F)cc3)ccc2O[C@H]1CN(C)S(=O)(=O)c1cccs1	inactive: 1.01
CC1(C)SC2C(NC(=O)C(N)c3ccc(O)cc3)C(=O)N2C1C(=O)O (stereo not given)	inactive: 1.1
COc1ccc([C@H]([C@H](Cc2ccccc2)OC(C)=O)N(CC#C[C@@H](O)c2ccccc2)[C@@H](Cc2ccccc2)C(OC)OC)cc1	inactive: 1.05
CCNC1CN(CCCOC)S(=O)(=O)c2sc(S(N)(=O)=O)cc21 (stereo not given)	inactive: 1
C[C@@H]1CN([C@@H](C)CO)C(=O)CCCn2cc(nn2)CO[C@H]1CN(C)C(=O)Nc1ccc(C(F)(F)F)cc1	inactive: 0.936
Cc1ccc(S(=O)(=O)Nc2ccc3c(c2)C(=O)N([C@H](C)CO)C[C@H](C)[C@H](CN(C)C(=O)c2ccccc2)OCCCC[C@@H](C)O3)cc1	inactive: 1.01
C[C@H]1CN([C@@H](C)CO)C(=O)c2cccc(NC(=O)Nc3ccc(C(F)(F)F)cc3)c2O[C@H]1CN(C)Cc1ccncc1	inactive: 0.95
C[C@H]1CN([C@@H](C)CO)C(=O)Cc2cc(NC(=O)CCN3CCOCC3)ccc2O[C@H]1CN(C)S(=O)(=O)c1ccc(Cl)cc1	inactive: 0.996
O=C(C[C@H]1C[C@H]2c3cc(NC(=O)c4ccc5c(c4)OCO5)ccc3O[C@H]2[C@@H](CO)O1)NCCc1ccccc1	inactive: 1.02
Cc1cc(C(=O)Nc2cccc3c2O[C@@H](CN(C)C(=O)NC2CCCCC2)[C@@H](C)CN([C@H](C)CO)C3=O)n(C)n1	inactive: 0.995
COc1ccc(S(=O)(=O)Nc2ccc3c(c2)C(=O)N([C@@H](C)CO)C[C@H](C)[C@@H](CN(C)S(=O)(=O)c2cn(C)cn2)O3)cc1	inactive: 0.966
Cc1ccc(S(=O)(=O)N(C)C[C@H]2Oc3c(NS(=O)(=O)c4cccs4)cccc3C(=O)N([C@H](C)CO)C[C@@H]2C)cc1	inactive: 0.912
C[C@@H]1CN([C@H](C)CO)C(=O)c2cc(NC(=O)Nc3cccc4ccccc34)ccc2O[C@H]1CN(C)Cc1ccc(C(=O)O)cc1	inactive: 0.994

SMILES	relative growth
COc1ccc2c3c(n(c2c1)C)[C@H](CO)N(CC1CCOCC1)C[C@]13CCN(CC1)C(=O)c1cnccn1	inactive: 0.981
CCn1cc(C(=O)O)c(=O)c2cc(F)c(N3CCNC(C)C3)c(F)c21.Cl (stereo not given)	active: 0.0478
C[C@@H]1CN([C@@H](C)CO)C(=O)c2cc(NC(=O)Nc3ccc(C(F)(F)F)cc3)ccc2O[C@@H](C)CCCCO[C@@H]1CN(C)Cc1ccc(C(=O)O)cc1	inactive: 0.975
C[C@@H]1CCCCO[C@H](CN(C)C(=O)Nc2cccc3ccccc23)[C@H](C)CN([C@@H](C)CO)C(=O)c2cc(NC(=O)C3CCCCC3)ccc2O1	inactive: 1.02
O=C(/C=C/c1ccc(O)c(O)c1)O[C@H]1[C@H](O)C[C@](OC(=O)/C=C/c2ccc(O)c(O)c2)(C(=O)O)C[C@H]1O	inactive: 0.988
CCCCn1nc(C2CC2)nc1Cn1ncnn1	inactive: 0.963
COc1ccc(N2C[C@@H](O)Cn3c2nc2c3c(=O)[nH]c(=O)n2C)cc1	inactive: 0.974
COc1ccc(NC(=O)Nc2ccc3c(c2)C(=O)N([C@@H](C)CO)C[C@H](C)[C@@H](CN(C)Cc2ccc(C(=O)O)cc2)OCCCC[C@H](C)O3)cc1	inactive: 0.994
C[C@H]1CN([C@@H](C)CO)C(=O)Cc2cc(NC(=O)CCC(F)(F)F)ccc2O[C@H]1CN(C)C(=O)Nc1cccc2ccccc12	inactive: 1.03
C[C@H](CO)N1C[C@H](C)[C@@H](CN(C)S(=O)(=O)c2ccc(C(F)(F)F)cc2)OCc2ccccc2-c2c(n(C)c3ccccc23)C1=O	inactive: 1.01
Cc1noc(C)c1NC(=O)Nc1ccc2c(c1)CC(=O)N([C@@H](C)CO)C[C@H](C)[C@@H](CN(C)Cc1ccc(C(F)(F)F)cc1)O2	inactive: 0.918
C=CC[C@H](CC(=O)N(CCO)Cc1ccccc1)C(=O)N[C@@H](COC(=O)[C@@H](CC=C)CC(=O)OC(C)(C)C)Cc1c[nH]c2ccccc12	inactive: 1.09
CCc1ccc(NC(=O)Cc2coc3ccc(C(C)C)cc23)cc1	inactive: 1.06
CC(C)NC(=O)Nc1ccc2c(c1)CC(=O)N([C@H](C)CO)C[C@H](C)[C@@H](CN(C)S(=O)(=O)c1ccccc1)O2	inactive: 0.975
Cc1ccc(S(=O)(=O)Nc2ccc3c(c2)C(=O)N([C@H](C)CO)C[C@H](C)[C@@H](CN(C)C(=O)Nc2c(C)noc2C)OCCCC[C@@H](C)O3)cc1	inactive: 1.02
COc1ccc(NC(=O)N(C)C[C@@H]2OCCCC[C@@H](C)Oc3ccc(NS(=O)(=O)c4cccs4)cc3C(=O)N([C@H](C)CO)C[C@@H]2C)cc1	inactive: 0.994
Cc1nccn1C[C@H](C)C(=O)O	inactive: 1.01
CC(C)CC#Cc1ccc2c(c1)O[C@@H](CN(C)S(=O)(=O)c1ccc(F)cc1)[C@H](C)CN([C@H](C)CO)S2(=O)=O	inactive: 1.06
C[C@@H]1CN([C@H](C)CO)C(=O)c2cccc(NC(=O)CCCCCC(=O)Nc3ccccc3N)c2O[C@@H]1CN(C)C(=O)Nc1ccc(C(F)(F)F)cc1	inactive: 0.965
C[C@@H]1CCCCO[C@@H](CN(C)Cc2ccncc2)[C@H](C)CN([C@H](C)CO)C(=O)c2cc(NC(=O)Cc3ccccc3)ccc2O1	inactive: 0.982

SMILES	relative growth
C[C@H]1CN([C@@H](C)CO)C(=O)c2cc(NC(=O)Cc3ccccc3)ccc2O[C@H]1CN(C)S(=O)(=O)c1ccccc1	inactive: 1.03
Cc1noc(C)c1NC(=O)N(C)C[C@@H]1OCCCC[C@@H](C)Oc2ccc(NC(=O)NC3CCCCC3)cc2C(=O)N([C@@H](C)CO)C[C@H]1C	inactive: 1.04
Cc1cc(C)nc(C#N)n1	inactive: 1
Cc1ccc(S(=O)(=O)Nc2ccc3c(c2)CC(=O)N([C@H](C)CO)C[C@H](C)[C@@H](CN(C)Cc2ccc(Oc4ccccc4)cc2)O3)cc1	inactive: 0.99
COc1cccc(-c2cn(CC[C@@H]3CC[C@@H](NS(=O)(=O)c4ccccc4Cl)[C@H](CO)O3)nn2)c1	inactive: 1.07
C[C@@H]1CN([C@H](C)CO)C(=O)c2cccc(NC(=O)Nc3ccc(C(F)(F)F)cc3)c2O[C@@H]1CN(C)S(=O)(=O)c1ccc(F)cc1	inactive: 0.854
C[C@H](CO)N1C[C@H](C)[C@@H](CN(C)Cc2ccc(C(F)(F)F)cc2)Oc2ccc(NC(=O)Nc3cccc4ccccc34)cc2CC1=O	inactive: 1.09
C[C@@H]1CN([C@@H](C)CO)C(=O)c2cc(NS(=O)(=O)c3cn(C)cn3)ccc2O[C@H]1CN(C)Cc1ccc(C(=O)Nc2ccccc2N)cc1	inactive: 1
O=C1C(=Cc2cccs2)CCCC1=Cc1cccs1	inactive: 1.06
CC(C)CC#Cc1cnc2c(c1)C(=O)N([C@H](C)CO)C[C@@H](C)[C@H](CN(C)C(=O)CCN1CCCCC1)O2	inactive: 0.98
CC(C)NC(=O)N(C)C[C@@H]1Oc2ccc(NS(=O)(=O)c3cccs3)cc2CC(=O)N([C@H](C)CO)C[C@@H]1C	inactive: 1.01
NS(=O)(=O)c1ccc(C(=O)O)cc1	inactive: 0.924
C[C@H]1CN([C@@H](C)CO)C(=O)c2cc(NC(=O)Nc3ccc(C(F)(F)F)cc3)ccc2O[C@@H]1CN(C)C(=O)Nc1ccc(F)cc1	inactive: 1.02
COc1ccccc1CNC(=O)C[C@@H]1CC[C@H]2[C@@H](COC[C@H](O)CN2C(=O)Nc2ccc(Cl)cc2)O1	inactive: 0.949
C[C@@H]1CN([C@H](C)CO)C(=O)c2cc(NS(=O)(=O)c3ccc(Cl)cc3)ccc2O[C@@H](C)CCCCO[C@H]1CN(C)S(=O)(=O)c1cccs1	inactive: 1.03
COc1ccc(NC(=O)N[C@@H]2CC[C@@H](CCNC(=O)CN3CCOCC3)O[C@@H]2CO)cc1	inactive: 1.04
C[C@@H]1CCCCO[C@@H](CN(C)C(=O)Nc2ccc(F)cc2)[C@H](C)CN([C@@H](C)CO)C(=O)c2cc(NC(=O)Nc3ccc4c(c3)OCO4)ccc2O1	inactive: 1.04
C[C@@H]1CN([C@@H](C)CO)C(=O)c2cc(NC(=O)CCN3CCOCC3)ccc2O[C@@H]1CN(C)Cc1ccncc1	inactive: 0.997
O=C(C[C@H]1CC[C@@H]2[C@H](COC[C@H](O)CN2S(=O)(=O)c2cccc(Cl)c2)O1)NCCCN1CCOCC1	inactive: 0.986
CO[C@H](CN(C)C(=O)c1ccccc1F)[C@H](C)CN([C@H](C)CO)S(=O)(=O)c1ccc(Cl)cc1	inactive: 0.976
